Experimental data as given in publication PMC7080775, “Filamentation of the bacterial bi-functional alcohol/aldehyde dehydrogenase AdhE is essential for substrate channeling and enzymatic regulation” (Nature Communications, 2020).

Target: the molecule itself
Assay: SEC-MALS; Superdex S200 5/150 GL increase; 25 µl at 10 mg ml^-1 in 0.05 M Tris-HCl pH 7.5, 0.2 M NaCl

B1: Δ446–449 AdhE mutant (His6-AdhE with the linker shortened) (enzyme, E. coli, UniProt P0A9Q7 1-891, looked up)
chain: MAVTNVAELNALVERVKKAQREYASFTQEQVDKIFRAAALAAADARIPLAKMAVAESGMGIVEDKVIKNHFASEYIYNAYKDEKTCGVLSEDDTFGTITIAEPIGIICGIVPTTNPTSTAIFKSLISLKTRNAIIFSPHPRAKDATNKAADIVLQAAIAAGAPKDLIGWIDQPSVELSNALMHHPDINLILATGGPGMVKAAYSSGKPAIGVGAGNTPVVIDETADIKRAVASVLMSKTFDNGVICASEQSVVVVDSVYDAVRERFATHGGYLLQGKELKAVQDVILKNGALNAAIVGQPAYKIAELAGFSVPENTKILIGEVTVVDESEPFAHEKLSPTLAMYRAKDFEDAVEKAEKLVAMGGIGHTSCLYTDQDNQPARVSYFGQKMKTARILINTPASQGGIGDLYNFKLAPSLTLGCGSWGGNSISENVGPKHLINKKTVANMLWHKLPKSIYFRRGSLPIALDEVITDGHKRALIVTDRFLFNNGYADQITSVLKAAGVETEVFFEVEADPTLSIVRKGAELANSFKPDVIIALGGGSPMDAAKIMWVMYEHPETHFEELALRFMDIRKRIYKFPKMGVKAKMIAVTTTSGTGSEVTPFAVVTDDATGQKYPLADYALTPDMAIVDANLVMDMPKSLCAFGGLDAVTHAMEAYVSVLASEFSDGQALQALKLLKEYLPASYHEGSKNPVARERVHSAATIAGIAFANAFLGVCHSMAHKLGSQFHIPHGLANALLICNVIRYNANDNPTKQTAFSQYDRPQARRRYAEIADHLGLSAPGDRTAAKIEKLLAWLETLKAELGIPKSIREAGVQEADFLANVDKLSEDAFDDQCTGANPRYPLISELKQILLDTYYGRDYVEGETAAKKEAAPAKAEKKAKKSA
notes: Acetaldehyde-alcohol dehydrogenase AdhE, E. coli K12, as m1 with residues 446-449 of the linker between the AlDH and ADH domains deleted; Dimer by SEC-MALS (200 kDa); Probably expressed and purified as the wild type (surmised); also called ∆446–449 mutant AdhE; AdhE mutant protein; source: His6-AdhE-pET15 plasmid with the deletion; purified
stoichiometry N: 2
